{
  "source": "the BET-seq Pho4 binding data (Le et al. 2018)",
  "note": "Some of the results follow. The energies were worked out here from pooled read counts, against the library average; single values are noisy.",
  "data": [
    {"molecular_target": "T1, Pho4 (S. cerevisiae) (UniProt P07270)", "T1 sequence": "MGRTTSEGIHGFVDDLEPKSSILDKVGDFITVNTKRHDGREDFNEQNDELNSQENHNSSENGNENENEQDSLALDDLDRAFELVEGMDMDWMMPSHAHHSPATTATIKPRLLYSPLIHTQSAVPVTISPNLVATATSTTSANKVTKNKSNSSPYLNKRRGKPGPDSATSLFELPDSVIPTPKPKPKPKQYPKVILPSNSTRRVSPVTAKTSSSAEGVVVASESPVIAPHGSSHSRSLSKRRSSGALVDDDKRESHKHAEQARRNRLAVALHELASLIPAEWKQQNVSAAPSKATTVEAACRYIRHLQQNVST", "assay": "relative binding free energy (BET-seq); higher = weaker binding", "conditions": "reference: library average", "units": {"relative binding free energy": "kcal/mol"}, "values": [
      {"sequence": "AATGTCACGTGAGTTC", "relative binding free energy": 0.29},
      {"sequence": "GCAGTCACGTGTTTGG", "relative binding free energy": 0.13},
      {"sequence": "AGCGGCACGTGTATAG", "relative binding free energy": -0.05},
      {"sequence": "CATTGCACGTGTGGAG", "relative binding free energy": 0.01},
      {"sequence": "CGCGCCACGTGGGGTT", "relative binding free energy": -0.23},
      {"sequence": "AGTAACACGTGATATG", "relative binding free energy": 0.07},
      {"sequence": "ATGTCCACGTGGTGGG", "relative binding free energy": -0.02},
      {"sequence": "CGTCGCACGTGGTCGG", "relative binding free energy": -0.22},
      {"sequence": "GAGGTCACGTGATGTA", "relative binding free energy": 0.25},
      {"sequence": "AATATCACGTGGATTA", "relative binding free energy": 0.11},
      {"sequence": "TTTAACACGTGAGGAG", "relative binding free energy": 0.26},
      {"sequence": "GTGTGCACGTGACTAT", "relative binding free energy": 0.22},
      {"sequence": "AAGGGCACGTGGGAGG", "relative binding free energy": -0.15},
      {"sequence": "AGAATCACGTGATATG", "relative binding free energy": 0.31},
      {"sequence": "GGCATCACGTGTGATT", "relative binding free energy": 0.21},
      {"sequence": "ATAAGCACGTGAGTTT", "relative binding free energy": 0.3},
      {"sequence": "AGTTACACGTGGGACG", "relative binding free energy": 0.14},
      {"sequence": "GAGTTCACGTGGGTAC", "relative binding free energy": 0.09},
      {"sequence": "AAATTCACGTGGTAAT", "relative binding free energy": 0.27},
      {"sequence": "GTTGGCACGTGAATGT", "relative binding free energy": 0.2},
      {"sequence": "TAAGGCACGTGGCGTT", "relative binding free energy": -0.21},
      {"sequence": "ATAGTCACGTGGTAGA", "relative binding free energy": 0.01},
      {"sequence": "TGGGTCACGTGTGGAA", "relative binding free energy": 0.18},
      {"sequence": "TTGGTCACGTGGACAT", "relative binding free energy": 0.18},
      {"sequence": "TTTGGCACGTGAGAAA", "relative binding free energy": 0.1},
      {"sequence": "AAGTGCACGTGTAGTG", "relative binding free energy": 0.09},
      {"sequence": "TTGCTCACGTGCGAGG", "relative binding free energy": 0.23},
      {"sequence": "AGGGGCACGTGGTGGT", "relative binding free energy": -0.07},
      {"sequence": "GTTATCACGTGGCAGG", "relative binding free energy": 0.34},
      {"sequence": "CCGGGCACGTGTATTT", "relative binding free energy": 0.05},
      {"sequence": "GTTCTCACGTGGGTAT", "relative binding free energy": 0.17},
      {"sequence": "TCGTGCACGTGGGGCA", "relative binding free energy": -0.3},
      {"sequence": "TTCTACACGTGAGAGG", "relative binding free energy": 0.34},
      {"sequence": "TTATGCACGTGGGTCA", "relative binding free energy": -0.09},
      {"sequence": "GGCCTCACGTGATGGG", "relative binding free energy": 0.31},
      {"sequence": "GGCATCACGTGTGGGG", "relative binding free energy": 0.25},
      {"sequence": "TTGTTCACGTGCTGGG", "relative binding free energy": 0.36},
      {"sequence": "AATGTCACGTGCATGG", "relative binding free energy": 0},
      {"sequence": "TCGAGCACGTGGCGGG", "relative binding free energy": -0.19},
      {"sequence": "TCAGACACGTGTGTGA", "relative binding free energy": 0.15},
      {"sequence": "GGCGGCACGTGGAGTA", "relative binding free energy": -0.1},
      {"sequence": "TGTATCACGTGGGGAG", "relative binding free energy": -0.04},
      {"sequence": "GGGGTCACGTGGCCTT", "relative binding free energy": 0.14},
      {"sequence": "TAAGTCACGTGGAGAA", "relative binding free energy": 0.21},
      {"sequence": "TTGGACACGTGGTGAC", "relative binding free energy": 0.12},
      {"sequence": "TGAATCACGTGTTTAG", "relative binding free energy": 0.25},
      {"sequence": "CTTAGCACGTGTAGAT", "relative binding free energy": 0.23},
      {"sequence": "TTGGTCACGTGTTTTT", "relative binding free energy": 0.23},
      {"sequence": "GCGGGCACGTGGTAAG", "relative binding free energy": -0.23},
      {"sequence": "CTGTCCACGTGGCGGG", "relative binding free energy": 0.01},
      {"sequence": "TCTTTCACGTGGTGTT", "relative binding free energy": 0.18},
      {"sequence": "CTTTACACGTGGAGTG", "relative binding free energy": 0.04},
      {"sequence": "GCGAGCACGTGTTTGT", "relative binding free energy": -0.07},
      {"sequence": "GATATCACGTGTGGGT", "relative binding free energy": 0.22},
      {"sequence": "TGGAGCACGTGAATTG", "relative binding free energy": 0.23},
      {"sequence": "GCGTGCACGTGAGATG", "relative binding free energy": 0.34},
      {"sequence": "TGGATCACGTGTGTTC", "relative binding free energy": 0.24},
      {"sequence": "GGAGTCACGTGATGAG", "relative binding free energy": 0.27},
      {"sequence": "TGTAGCACGTGCTATA", "relative binding free energy": -0.06},
      {"sequence": "TAGGCCACGTGGCGTT", "relative binding free energy": -0.15},
      {"sequence": "TGGCGCACGTGGATAT", "relative binding free energy": -0.02},
      {"sequence": "TGTGGCACGTGCCTGT", "relative binding free energy": -0.21},
      {"sequence": "TAATCCACGTGTGGTG", "relative binding free energy": 0.09},
      {"sequence": "GGGTTCACGTGTAGCA", "relative binding free energy": 0.24},
      {"sequence": "TGTGGCACGTGCTTTC", "relative binding free energy": -0.04},
      {"sequence": "GTATGCACGTGGGTTT", "relative binding free energy": -0.05},
      {"sequence": "CGGGTCACGTGGACGG", "relative binding free energy": 0.04},
      {"sequence": "TGGTGCACGTGAAATA", "relative binding free energy": 0.31},
      {"sequence": "GTAAACACGTGTCGGG", "relative binding free energy": 0.09},
      {"sequence": "GGTCACACGTGGTTAG", "relative binding free energy": 0.18},
      {"sequence": "CTGGGCACGTGGTACG", "relative binding free energy": -0.35},
      {"sequence": "GGTGCCACGTGGTCGG", "relative binding free energy": -0.27},
      {"sequence": "CGTTGCACGTGAAGGG", "relative binding free energy": 0.24},
      {"sequence": "TGTCTCACGTGGTGAT", "relative binding free energy": 0.17},
      {"sequence": "TGTAGCACGTGGAAGG", "relative binding free energy": 0},
      {"sequence": "CATTTCACGTGTATGT", "relative binding free energy": 0.24},
      {"sequence": "GGGTGCACGTGGTTTC", "relative binding free energy": -0.03},
      {"sequence": "AGGCACACGTGGCGTG", "relative binding free energy": 0.01},
      {"sequence": "TTTGACACGTGGGGTG", "relative binding free energy": -0.04},
      {"sequence": "TGGCGCACGTGCTTTT", "relative binding free energy": -0.1},
      {"sequence": "TTGGACACGTGTTCGG", "relative binding free energy": 0.16},
      {"sequence": "TGACTCACGTGGTTAG", "relative binding free energy": 0.13},
      {"sequence": "GGAAGCACGTGGTCGG", "relative binding free energy": -0.21},
      {"sequence": "TTGTTCACGTGAGTTT", "relative binding free energy": 0.41},
      {"sequence": "ATGTGCACGTGTGTCG", "relative binding free energy": 0.02},
      {"sequence": "TTTTTCACGTGACGTG", "relative binding free energy": 0.34},
      {"sequence": "GATAGCACGTGATTGT", "relative binding free energy": 0},
      {"sequence": "GCTTTCACGTGGGGGG", "relative binding free energy": 0.16},
      {"sequence": "CCGTTCACGTGGGTGA", "relative binding free energy": 0.15},
      {"sequence": "GGTGTCACGTGGGGTC", "relative binding free energy": 0.07},
      {"sequence": "AGATTCACGTGTTACG", "relative binding free energy": 0.26},
      {"sequence": "AATAACACGTGTGGAG", "relative binding free energy": 0.09},
      {"sequence": "GGTGGCACGTGTGGTG", "relative binding free energy": 0.05},
      {"sequence": "CTAGTCACGTGTAGTT", "relative binding free energy": 0.17},
      {"sequence": "GTAACCACGTGAGGGT", "relative binding free energy": 0.14},
      {"sequence": "TGAAGCACGTGTGTGG", "relative binding free energy": 0.08},
      {"sequence": "TTAGTCACGTGGGGCG", "relative binding free energy": -0.07},
      {"sequence": "TTGGCCACGTGCGTTT", "relative binding free energy": -0.1},
      {"sequence": "TTGTCCACGTGGTTCT", "relative binding free energy": 0.11},
      {"sequence": "TGACGCACGTGTGTTA", "relative binding free energy": -0.16},
      {"sequence": "TTAGACACGTGTGTTA", "relative binding free energy": 0.14},
      {"sequence": "CAGAGCACGTGGGGGT", "relative binding free energy": -0.33},
      {"sequence": "TAAGTCACGTGGCGAT", "relative binding free energy": 0.09},
      {"sequence": "AGTTACACGTGAGGAG", "relative binding free energy": 0.28},
      {"sequence": "ATTCACACGTGGGGTG", "relative binding free energy": -0.16},
      {"sequence": "TTGCTCACGTGGCTGG", "relative binding free energy": 0.16},
      {"sequence": "GTGTGCACGTGGATTT", "relative binding free energy": 0.16},
      {"sequence": "CGGTTCACGTGTGGTC", "relative binding free energy": 0.2},
      {"sequence": "ATTTGCACGTGGTCTA", "relative binding free energy": -0.26},
      {"sequence": "AGTTCCACGTGCTGTG", "relative binding free energy": 0.05},
      {"sequence": "GCAGTCACGTGTAAGG", "relative binding free energy": 0.14},
      {"sequence": "AAGTACACGTGGTTGA", "relative binding free energy": -0.06},
      {"sequence": "TGGATCACGTGTCTTG", "relative binding free energy": 0.17},
      {"sequence": "AGGCTCACGTGTTGTG", "relative binding free energy": 0.11},
      {"sequence": "TATAACACGTGTATTT", "relative binding free energy": -0.12}
    ]}
  ]
}
